# Data reported in ChEMBL document CHEMBL4888484, “Replenishing the malaria drug discovery pipeline: Screening and hit evaluation of the MMV Hit Generation Library 1 (HGL1) against asexual blood stage Plasmodium falciparum ,using a nano luciferase reporter read-out” (2022).
# Screen size: about 150,000 compounds; about 540 (0.36%) showed an effect of 50% or more. This is one part of the list.
# System: Plasmodium falciparum
# Experiment: Primary screen in NF54 nanoGlo assay, in single point, at 2uM, 72h; a lower Z score goes with more inhibition
# Assay type: functional, Erythrocyte
# Settings: timepoint 72 hour
SMILES,% Inhibition,Z score
CNC(=O)c1cccc(Nc2c(Oc3ccc(C)c(C)c3)cnn(-c3cccc(Cl)c3)c2=O)c1,-11%,1.26
COC(=O)c1c(NC(C)=O)c2cc(NCc3ccccc3F)cnc2n1CCc1ccc(OC)cc1,-14%,1.59
CCOCC(=O)OCC(=O)NC(=O)Cc1ccccc1,-3%,0.33
Cc1noc(C)c1N(C)CCCS(C)(=O)=O,1%,-0.18
CCCC1(COC)CCCN1C(=O)NC1CCc2nc(CC)nn2C1 (centres undefined),-9%,0.94
COc1ccc(S(=O)(=O)N2CCOCC2)cc1NC(=O)c1cc(C)sc1C,-6%,0.82
Cc1nonc1CC(=O)NC(Cc1ccncc1)[C@H]1C[C@@H](O)C1 (some centres undefined),2%,-0.3
CC(C)C(NC(=O)c1ccccc1Cl)C(C)C,6%,-0.88
O=C1C[C@H]2CC[C@@H](CN1)N2C(=O)CCc1ccsc1,-4%,0.8
CN(Cc1cnc(NCc2ccccc2)nc1)Cc1nccs1,16%,-2.95
Cc1ccc(CN2CCC[C@H](OCc3noc(C)n3)C2)nc1,-4%,0.58
COCc1nc(-c2ccc(OC3CN(Cc4ccc(C(F)(F)F)cc4)C3)cc2)no1,-14%,2.58
CCN1CCN(c2cc([C@H]3CCOC3)nc(N3CC(O)C3)n2)CC1=O,-5%,0.64
CC(C)(C)c1n[nH]cc1C(=O)NCc1ccncc1Br,15%,-1.95
Cc1ncc(CN(C(C)C)C(C)C)s1,-12%,1.35
O=C(N[C@H]1CCOC1)c1cn(CC2CCCCC2)nn1,2%,-0.48
CC(C)Cn1cncc1CNc1ncc(Cl)cn1,0%,0.06
Cc1cc(=O)n2nc(N3CCN(C(=O)c4ccccc4)CC3)nc2[nH]1,-5%,0.92
CCCn1ccc(NC(=O)NC(C)(C)C)n1,-10%,1.45
Cc1nc(C)c(C)c(N[C@H]2CCC[C@H]2C(N)=O)n1,-2%,0.33
COC[C@H]1CCCN(C(=O)c2occc2-c2ccc(F)cc2)C1,1%,-0.17
Cc1cc2c(Cc3ccc(Br)cc3)n[nH]c(=O)c2c(=O)[nH]1,-15%,1.89

SMILES,% Inhibition,Z score
O=C(NCc1ccncc1)C1Cc2cc(C(F)(F)F)ccc2N2CCN(c3ccccc3)CC12 (centres undefined),2%,-0.19
O=C1Nc2ccc(O)cc2O[C@H]1Cc1ccccc1Cl,0%,-0.03
O=C(Nc1ccc(Cl)cc1)N[C@H]1CCC12CCOCC2,17%,-2.21
C[C@@H]1CN(Cc2cccc(C(=O)O)c2)CCN(CC(F)(F)F)C1,-5%,0.66
Cc1ccnn1-c1ccccc1NC(=O)Nc1ccn(CCC#N)n1,-13%,1.8
O=C(c1cnc2ccccc2n1)N1CCC(C(=O)N2CCCCCC2)CC1,-8%,0.97
CC[C@@H](C(=O)O)N(C)Cc1cc(Cl)ccc1F,-8%,1.06
O=C(O)c1cc(-c2c(-c3ccccc3)nn3ccccc23)n[nH]c1=O,-5%,0.8
O=C(N[C@@H](CC1CC1)C(=O)O)c1csc(C(F)(F)F)c1,-7%,1.41
CC1(C)CC(NC(=O)COc2ccc(Cl)cc2)CC(C)(CNC(=O)COc2ccc(Cl)cc2)C1 (centres undefined),-9%,1.66
COc1ccccc1CNC(=O)CN1C(=O)[C@@H]2CCCCN2c2ccc(C(=O)N3CCCC3)cc21,-2%,0.17
O=C(NCc1ccc(OCc2cccnc2)cc1)c1cc(Br)ccc1F,-6%,1.23
Cc1ccc(F)cc1CN(C)c1nncn1C,12%,-1.11
CC1=CC(C)(C)N=CN1c1cccc(C)c1,-5%,0.56
Cc1nonc1N1CCN(c2cc([C@H]3CCOC3)ncn2)CC1,-11%,1.08
CCC[C@@H](C#N)NC(=O)c1ccc2ncnn2c1,-14%,2.29
CCN(CC)CC#CC1(OCCC#N)CCCCC1,2%,-0.25
CC1(C)C(=O)NCCN1C(=O)C1=CCCCO1,-5%,0.5
Cc1noc(C[C@H]2CCOC3(CCN(C(=O)CCCc4ccccc4)CC3)C2)n1,-12%,1.7
Cc1cc(-c2c(N3CCCC3)cn[nH]c2=O)ccc1O,8%,-1.05
O=C(Cc1cccnc1)N1CC[C@H](c2cccc(C(F)(F)F)c2)C1,-1%,0.16
CC(C)c1noc([C@@H]2CCCCN2Cc2ncccc2C(=O)O)n1,2%,-0.25

SMILES,% Inhibition,Z score
Cc1nn(-c2ccc(C(=O)NC3CCCCC3)cc2)c2c1C(=O)CCC2,-11%,1.42
CNC(=O)CCOC(=O)c1cc(Cl)c(Cl)[nH]1,-17%,2.14
CCOc1ccc(-c2cc3n(n2)CCCN(C(=O)NCCOC)C3)cc1,8%,-0.86
CC1=C(C(=O)Nc2nnc3cc(C)ccn23)CCC1,-6%,1.04
NC(=O)c1cnc2n1CCN(C(=O)c1ccc3[nH]c4c(c3c1)CCCC4)C2,-8%,0.7
C[C@H](NC(=O)c1ccc[nH]1)C(C)(F)F,-1%,0.11
Cc1nc(NC(=O)Cn2nc(C)n(C)c2=O)sc1Cc1ccccc1,11%,-1.1
CC1CN(C(=O)c2ccncc2F)CC(C)[S+]1[O-] (centres undefined),-5%,0.97
COc1cnc(NCc2cc3c(nc2OC)CN(C2CCCC2)C3=O)nc1,-13%,2.52
CCCc1cc(C(=O)N2CCC[C@H](N)C2)sc1C,-15%,1.8
O=C(CC1CCCC1)Nc1cccc2ccccc12,33%,-3.78
O=C(C1CCC1)N1CCCc2cc(S(=O)(=O)Nc3ccccc3)ccc21,-8%,1.44
C[C@@H](C(=O)Nc1ccc(F)cc1)n1nc(-c2ccccc2)c2cc(Cl)ccc21,-4%,0.78
COc1cc(OC)nc(N(C)[C@H]2C[C@@H](OC)C2)n1,-10%,1.02
COc1ccc(C(=O)NC[C@H](O)c2ccc3c(c2)CCN3C)c(OC)c1OC,-12%,1.54
CCOc1ccccc1CNc1cccc2c1CCNC2=O,0%,0
Cc1cc2ccccc2n1CC(=O)Nc1cccc(N2C(=O)CN(C)C2=O)c1,-4%,0.75
COc1ccc2c(N)n(C(=O)c3cc(C)no3)nc2c1,-7%,1.06
COc1cc(NC(=O)[C@@H]2CC(=O)N(C)c3ccccc32)cc(-n2cnnn2)c1,-9%,1.59
CCCc1cnc(C)nc1N1C[C@@H](CN(C)CC)[C@@H](CO)C1,4%,-0.62
Cn1nccc1-c1ccc(CNC(=O)c2ccccn2)cn1,18%,-2.03
C[C@H](NCc1nc2ccccc2o1)c1ccc(S(C)(=O)=O)c(F)c1,-8%,1.09

SMILES,% Inhibition,Z score
CCCN1CCC(N2CCC[C@H](C(=O)c3cccc(OC(C)C)c3)C2)CC1,2%,-0.26
COc1cc2c(cc1OC)C(=O)N1CCC[C@H]1C(=O)N2,0%,-0.09
Cc1ccc(N(C)S(=O)(=O)c2c(-c3ccccc3)csc2C(=O)NCc2ccccn2)cc1C,-9%,1.12
Cc1c(-c2nnc(-c3ccc(F)cc3)o2)nnn1-c1nonc1N,-3%,0.38
COc1cccc(-c2ncnc3sc(C(=O)O)c(C)c23)c1,1%,-0.08
Cc1cc(O)nc(C(C)N2CCOC(C(C)(C)C)C2)n1 (centres undefined),7%,-1.39
CCc1cc(-c2nc(C[C@H]3CCCO3)no2)n(C)n1,-14%,1.98
CCCNC(=O)C1CCN(S(=O)(=O)c2ccc3c(c2)CCC3)CC1,-5%,0.67
O=C(CC1=CCCCC1)NCCN1C(=O)CCCC1=O,9%,-1.25
O=C(Nc1cc2c(nn1)CCC2)N1CC[C@H](Nc2ncccn2)C1,-11%,1.54
O=C(c1ccoc1)N1CC[C@H](Oc2cccc3cccnc23)C1,-16%,3.12
CC(NC(=O)N1CCC[C@H]1COc1ccc(F)cc1)c1ccc[nH]1 (some centres undefined),-14%,1.69
CC(=O)c1ccc(CNC(=O)CC[C@H]2CCCO2)nc1C,-1%,0.16
C[C@H]1CCCN(C(=O)c2cccc(S(=O)(=O)NC3CC3)c2)C1,-12%,1.23
Cc1nn(CCN2CCCCC2)c(C)c1S(=O)(=O)N1CCc2ccccc21,-2%,0.37
CCCc1csc(NC(=O)N2CC[C@]3(CCN(C)C3)C2)n1,-1%,0.28
O=C(c1ccco1)N(Cc1nccn1Cc1cccc(C(F)(F)F)c1)CC1CC1,12%,-1.49
c1ccc(Cc2nc3c(c(N4CCOCC4)n2)C2(CCCCC2)Cc2ccccc2-3)cc1,-3%,0.38
COCc1nc(CNC(=O)C2(Nc3ccc(C)cc3)CCCC2)no1,-3%,0.44
Cn1ccnc1CNc1ccc(N2CCN(C(=O)OC(C)(C)C)CC2)cn1,1%,-0.18
Cc1cc(N2CCC3(CCCN3Cc3nccn3C)CC2)c2ccccc2n1,0%,-0.02
